From publication PMC4336329 (PLoS ONE, 2015)
In all, about 310,000 compounds went through this assay and about 2,200 (0.71%) showed an effect of 50% or more. Effects have a minus sign here. Some of the results follow.

target: human ether-à-go-go-related gene (hERG) potassium channel (human, UniProt Q12809); experiment: primary screen, population patch clamp on CHO cells stably expressing hERG
Sequence (Q12809 whole entry, looked up): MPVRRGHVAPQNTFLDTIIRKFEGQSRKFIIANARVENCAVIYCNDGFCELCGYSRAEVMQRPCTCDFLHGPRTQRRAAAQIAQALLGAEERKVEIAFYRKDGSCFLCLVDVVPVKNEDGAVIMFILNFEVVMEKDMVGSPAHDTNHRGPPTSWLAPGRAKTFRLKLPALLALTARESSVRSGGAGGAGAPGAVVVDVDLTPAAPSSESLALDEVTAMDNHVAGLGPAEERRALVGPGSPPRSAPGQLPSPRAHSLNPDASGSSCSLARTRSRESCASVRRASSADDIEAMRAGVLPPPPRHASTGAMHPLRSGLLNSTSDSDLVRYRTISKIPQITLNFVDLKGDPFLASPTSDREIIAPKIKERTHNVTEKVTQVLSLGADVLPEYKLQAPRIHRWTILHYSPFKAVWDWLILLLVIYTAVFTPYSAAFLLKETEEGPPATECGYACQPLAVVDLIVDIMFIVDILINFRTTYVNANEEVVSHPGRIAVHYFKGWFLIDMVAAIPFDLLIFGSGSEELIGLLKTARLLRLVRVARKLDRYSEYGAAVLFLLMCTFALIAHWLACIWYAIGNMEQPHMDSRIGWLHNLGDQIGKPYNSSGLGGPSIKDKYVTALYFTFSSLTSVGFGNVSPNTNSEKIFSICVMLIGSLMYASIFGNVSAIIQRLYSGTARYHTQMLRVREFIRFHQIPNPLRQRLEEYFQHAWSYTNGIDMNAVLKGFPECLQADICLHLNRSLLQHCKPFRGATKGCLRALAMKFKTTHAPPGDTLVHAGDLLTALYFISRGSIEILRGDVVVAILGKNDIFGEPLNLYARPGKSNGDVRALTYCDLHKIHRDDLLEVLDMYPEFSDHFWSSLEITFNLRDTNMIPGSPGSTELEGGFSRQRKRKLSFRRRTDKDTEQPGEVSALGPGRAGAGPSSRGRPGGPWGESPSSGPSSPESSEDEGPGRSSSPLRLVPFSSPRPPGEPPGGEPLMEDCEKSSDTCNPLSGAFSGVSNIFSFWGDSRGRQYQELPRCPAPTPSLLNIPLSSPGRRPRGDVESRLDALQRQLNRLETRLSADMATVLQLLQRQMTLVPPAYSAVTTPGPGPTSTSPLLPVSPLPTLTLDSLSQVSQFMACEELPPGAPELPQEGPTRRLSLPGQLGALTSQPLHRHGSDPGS

| SMILES | hERG current change (%, negative = inhibition) at 1uM [%] |
| --- | --- |
| CN1C(=O)/C(=C/c2ccc(N3CCCCCC3)o2)C(=O)NC1=S | 1.53 |
| O=C(O)CCC(=O)NCc1cn(-c2ccccc2)nc1-c1cccc(Br)c1 | 9.76 |
| COc1ccc(OC)c2[nH]c(C(=O)O)cc12 | 14.5 |
| Cc1cccc(Nc2nnc(SCC(=O)NC3CCCc4ccccc43)s2)c1 (stereo not shown) | 2.32 |
| CCOC(=O)C1=C(c2ccccc2)NC(=O)NC1c1ccc(OC)cc1OC (stereo not shown) | 6.74 |
| COCCN1C(=O)C(=O)/C(=C(/O)c2ccc(S(=O)(=O)N3CCCCC3)cc2)C1c1ccc(O)c(OC)c1 (stereo not shown) | 15 |
| S=C(NCc1ccco1)N1CCN(Cc2ccco2)CC1 | 11.1 |
| CC1CC(C)CN(S(=O)(=O)c2ccc(F)c(C(=O)Nc3ccc(Cl)cc3F)c2)C1 (stereo not shown) | 12.6 |
| Cc1ccc(NC(=O)Cc2noc3ccccc23)cc1 | 19.3 |
| CS(=O)(=O)N(CC(=O)Nc1ccccc1)c1cccc(Cl)c1Cl | 9.78 |
| CCOc1ccc(C(C)NC(=S)NCc2ccc(F)cc2)cc1 (stereo not shown) | 9.89 |
| O=C(Nc1cccc(NC(=O)c2ccccc2Cl)c1)c1ccc(F)cc1 | 7.98 |
| O=C(CCN1C(=O)c2cccc3cccc(c23)C1=O)Nc1ccccc1 | 9 |
| CCOC(=O)c1sc2nc(C)nc(N3CCN(c4ncccn4)CC3)c2c1C | 9.37 |
| CCC(C)N1C(=O)S/C(=C/c2ccc(N3CCOCC3)cc2C)C1=O (stereo not shown) | 12.5 |
| CCn1c(-c2cc(-c3ccccc3OC)nc3ccccc23)n[nH]c1=S | 0.836 |
| CCOC(=O)c1ccc(NC(=O)CN2C(=O)NC3(CCCCCCC3)C2=O)cc1 | 15.6 |
| NC(=O)C1CCN(C(=O)C2CCC(=O)N(CC3CCCCC3)C2)CC1 (stereo not shown) | 7.13 |
| Cc1ccc(C(CC(=O)O)C2CCOC(C)(C)C2)cc1 (stereo not shown) | 10.4 |
| COc1ccccc1C(OC(=O)c1cccs1)C(=O)NCC1CCCO1 (stereo not shown) | 9.96 |
| Cc1cccc(N2C(=O)C3CCCN3C2=S)c1C (stereo not shown) | 9.81 |
| CCOC(=O)c1c(/N=C/c2cc(OC)cc([N+](=O)[O-])c2O)sc(C)c1C | 11.7 |
| O=C(Nc1ccccc1[N+](=O)[O-])c1cccc(N2C(=O)CCC2=O)c1 | 12.3 |

| SMILES | hERG current change (%, negative = inhibition) at 1uM [%] |
| --- | --- |
| CC(Cc1ccccc1)NC(=O)CCCCC(=O)NC(C)Cc1ccccc1 (stereo not shown) | 15.4 |
| COc1cccc(C2CCCN2Cc2nc(CC3CC3)no2)c1 (stereo not shown) | 14.5 |
| c1ccc(CCNc2nc(-c3ccccn3)nc3ccccc23)cc1 | -15.8 |
| Cc1ccc(S(=O)(=O)N2CCCCC2CCNC(=O)C(=O)NCc2ccncc2)cc1 (stereo not shown) | -4.18 |
| CCNCc1cc(Cl)c(OCc2ccccc2)c(OCC)c1.Cl | 5.68 |
| Cc1ccc(NCc2nnc(SCC(=O)Nc3cc(C)on3)n2C)cc1 | 11.6 |
| Cc1ccc2[nH]c(C)c(CCNC(=O)C3CCCCC3C(=O)OCC(F)(F)F)c2c1 (stereo not shown) | 6.33 |
| O=C(CCn1cncn1)N1CCN(S(=O)(=O)c2ccc(Cl)cc2)CC1 | 12.5 |
| CCOC(=O)Cc1csc(NC(=O)CSc2nnc(C(C)C)n2CC)n1 | 8.25 |
| CCC(C(=O)NCCCc1ccccc1)c1ccccc1 (stereo not shown) | 2.45 |
| CC(C)Oc1ccc(C2CC(=O)N(C)C2=O)cc1 (stereo not shown) | 15.3 |
| CCOc1ccc(C(=O)OCC(=O)NCc2ccco2)cc1OCC | 4.2 |
| Cc1ccc(C(C)C)c(OCC(=O)N/N=C2\CC(=O)CC(C)(C)C2)c1 | 5.93 |
| O=C(NCCSCc1ccccc1)c1ccc(C2SCC(=O)N2Cc2ccccc2)cc1 (stereo not shown) | 2.75 |
| CC(=O)NCCc1nc2cc(NS(=O)(=O)c3ccccc3)ccc2n1C | -4.54 |
| Cc1ccc(NC(=O)CCC(=O)NNC(=O)COc2ccccc2)c(C)c1 | 7.32 |
| O=C(C1CC(=O)N(c2ccc3c(c2)OCCO3)C1)N1CCCC(C(F)(F)F)C1 (stereo not shown) | 11.3 |
| COC(=O)C1=C(C)NC(=O)/C1=C\c1cc(C)n(-c2ccccc2)c1C | 21.5 |
| COc1cc2c(cc1OC)CN(C(=O)/C=C/c1ccc(F)cc1)CC2 | 8.63 |
| O=C1CCN(Cc2ccccc2)S(=O)(=O)c2ccccc21 | 10.9 |
| COC(=O)COc1ccc(S(=O)(=O)Nc2cc([N+](=O)[O-])ccc2C)cc1 | 21.1 |
| O=C(Cc1cccc2ccccc12)N/N=C/c1ccc(O)c([N+](=O)[O-])c1 | 5.64 |
| Cc1c(Cc2ccccc2)c(=O)oc2cc(OCC(=O)NCc3ccccn3)ccc12 | 9.49 |
